58 compounds from article PMC4336329 (PLoS ONE, 2015) can be followed below.

Structures are written as SMILES. About 14,000 (4.5%) of roughly 310,000 compounds showed an effect of 50% or more. The effect is printed as a negative number. The list shows a part of the results.
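Further: peak tail current of the secondary pulse compared with the same well before compound.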

The target of this assay is human ether-à-go-go-related gene (hERG) potassium channel (human, UniProt Q12809). The assay can be described thus: primary screen, population patch clamp on CHO cells stably expressing hERG.
human ether-à-go-go-related gene (hERG) potassium channel, sequence (Q12809 whole entry, looked up): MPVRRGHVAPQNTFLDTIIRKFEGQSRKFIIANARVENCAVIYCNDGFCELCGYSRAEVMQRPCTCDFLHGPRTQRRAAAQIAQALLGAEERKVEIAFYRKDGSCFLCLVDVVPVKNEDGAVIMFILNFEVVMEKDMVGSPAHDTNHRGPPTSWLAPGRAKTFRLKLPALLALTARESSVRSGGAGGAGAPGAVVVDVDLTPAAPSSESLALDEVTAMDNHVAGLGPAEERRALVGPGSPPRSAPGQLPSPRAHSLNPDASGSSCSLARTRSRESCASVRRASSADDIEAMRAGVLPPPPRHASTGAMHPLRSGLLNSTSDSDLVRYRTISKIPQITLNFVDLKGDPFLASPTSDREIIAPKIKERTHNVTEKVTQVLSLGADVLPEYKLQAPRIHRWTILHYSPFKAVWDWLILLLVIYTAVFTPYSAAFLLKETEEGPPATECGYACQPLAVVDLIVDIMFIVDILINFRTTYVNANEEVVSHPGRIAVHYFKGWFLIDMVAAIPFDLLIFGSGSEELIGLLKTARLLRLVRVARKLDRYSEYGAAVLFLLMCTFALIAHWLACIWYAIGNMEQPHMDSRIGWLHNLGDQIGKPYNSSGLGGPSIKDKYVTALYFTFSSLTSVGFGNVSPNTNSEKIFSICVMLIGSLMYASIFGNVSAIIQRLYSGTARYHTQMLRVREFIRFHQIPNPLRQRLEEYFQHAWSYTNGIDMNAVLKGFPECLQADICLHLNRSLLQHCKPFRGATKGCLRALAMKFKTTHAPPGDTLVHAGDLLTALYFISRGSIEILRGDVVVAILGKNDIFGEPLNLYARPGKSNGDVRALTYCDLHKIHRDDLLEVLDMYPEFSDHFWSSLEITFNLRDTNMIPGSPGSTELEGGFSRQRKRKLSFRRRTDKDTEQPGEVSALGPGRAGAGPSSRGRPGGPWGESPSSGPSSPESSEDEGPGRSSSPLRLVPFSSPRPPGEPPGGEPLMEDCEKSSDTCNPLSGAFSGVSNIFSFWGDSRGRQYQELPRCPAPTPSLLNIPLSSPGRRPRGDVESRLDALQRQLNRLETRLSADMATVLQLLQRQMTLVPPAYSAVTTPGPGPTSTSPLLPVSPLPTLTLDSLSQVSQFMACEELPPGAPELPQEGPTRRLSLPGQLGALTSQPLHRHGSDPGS
Consider `NC(=S)Nc1ccc2cc[nH]c2c1`, for which the “hERG current change (%, negative = inhibition) at 10uM” value is -1.75%.

As to `O=C(Nc1ccc(S(=O)(=O)N2CCCCC2)cc1)C1CCN(C(=O)c2ccco2)CC1`, the “hERG current change (%, negative = inhibition) at 10uM” value is listed as -24.7%.

With `C=CCn1c(=O)c2ccccc2n2c(SCc3nnc(-c4ccccc4Br)o3)nnc12`, the “hERG current change (%, negative = inhibition) at 10uM” value is reported as -18.8%.

Regarding `CCc1nn(CC(=O)O)c(=O)c2ccccc12`, the “hERG current change (%, negative = inhibition) at 10uM” value turned out to be 15.5%.

Regarding `Cc1ccc(S(=O)(=O)N(C)C)cc1NC(=O)c1sccc1Cl`, the “hERG current change (%, negative = inhibition) at 10uM” value came to 6.02%.

As for `O=C(NC1c2ccccc2-c2ccccc21)c1ccccc1`, the “hERG current change (%, negative = inhibition) at 10uM” value is reported as 7.92%.

On to `Cc1ccc(-c2csc(NC(=O)CN3CCC(C(N)=O)CC3)n2)cc1`, for which the “hERG current change (%, negative = inhibition) at 10uM” value is listed as 8.38%.

As for `CCCn1c2ccccc2c2cnn(CC(=O)N3CCN(C4CCCCC4)CC3)c(=O)c21`, the “hERG current change (%, negative = inhibition) at 10uM” value was -72.6%.

Consider `N#Cc1c(-c2ccccc2Cl)c2c([nH]c1=O)-c1ccccc1OC2`, for which the “hERG current change (%, negative = inhibition) at 10uM” value worked out at 16.4%.

Consider `CCc1ccc(OCCNC(=O)c2cc(SC)ccc2Cl)cc1`, for which the “hERG current change (%, negative = inhibition) at 10uM” value was -9.28%.

On to `COc1ccc(/C(N)=N/OC(=O)CCC2CCCC2)cc1`, for which the “hERG current change (%, negative = inhibition) at 10uM” value is reported as 31.5%.

With `CCOC(=O)c1oc2cccc(O)c2c1CN1CCOCC1.Cl`, the “hERG current change (%, negative = inhibition) at 10uM” value is -17.1%.

Take `O=[N+]([O-])c1ccc(N2CCN(c3ccccc3F)CC2)c(S(=O)(=O)N2CCOCC2)c1`: the “hERG current change (%, negative = inhibition) at 10uM” value is recorded as -5.12%.

Take `COc1ccc(-c2nc(CN3CCN(c4ncccn4)CC3)c(C)o2)cc1C`: the “hERG current change (%, negative = inhibition) at 10uM” value is -21.1%.

Regarding `O=C(CSc1nnnn1C1CCCCC1)Nc1ccc(F)cc1`, the “hERG current change (%, negative = inhibition) at 10uM” value was determined as 6.63%.

As for `COc1ccccc1/C=C/CN1CCN(Cc2ccc(C)o2)C(CCO)C1` (stereo not shown), the “hERG current change (%, negative = inhibition) at 10uM” value is reported as -12%.

For the compound `COc1ccc(Cc2nnc(NC(=O)c3ccccc3[N+](=O)[O-])s2)cc1`, the “hERG current change (%, negative = inhibition) at 10uM” value worked out at 10.2%.

For `OC1CCN(CC(O)C(F)(F)F)CC1` (stereo not shown), the “hERG current change (%, negative = inhibition) at 10uM” value came to 15.9%.

For `Cc1cc(C)c2[nH]c(=O)c(CN(Cc3cccs3)C(=S)NCC3CCCO3)cc2c1` (stereo not shown), the “hERG current change (%, negative = inhibition) at 10uM” value is on record as -8.17%.

For `COc1cccc(N2C(=O)CC(N3CCN(S(=O)(=O)c4ccccc4)CC3)C2=O)c1` (stereo not shown), the “hERG current change (%, negative = inhibition) at 10uM” value is 6.42%.

Take `Cn1c(O)c(N=NC(=O)CNC(=O)c2ccccc2)c2ccccc21`: the “hERG current change (%, negative = inhibition) at 10uM” value is recorded as -5.92%.

As to `CC1CCC2CCCCC2N1C(=O)c1cc([N+](=O)[O-])cc([N+](=O)[O-])c1` (stereo not shown), the “hERG current change (%, negative = inhibition) at 10uM” value stood at 2.18%.

Turning to `O=C(CN1CCN(c2ccccn2)CC1)N1CC(O)CO1` (stereo not shown), the “hERG current change (%, negative = inhibition) at 10uM” value was found to be 17.4%.

For `C/C=C/Cn1c(SCc2ccc(C)cc2)nc2c1c(=O)[nH]c(=O)n2C`, the “hERG current change (%, negative = inhibition) at 10uM” value is -2.64%.

For `COc1cc(OC)cc(-c2cc(N)n(S(=O)(=O)c3cccc4nsnc34)n2)c1`, the “hERG current change (%, negative = inhibition) at 10uM” value is reported as -4.1%.

As to `O=C(O)c1cc(C(=O)C2CCCCC2)c[nH]1`, the “hERG current change (%, negative = inhibition) at 10uM” value was 21%.

For `O=C(NCc1ccccn1)/C(=C/c1ccco1)NC(=O)c1ccccc1`, the “hERG current change (%, negative = inhibition) at 10uM” value is given as -10%.

In the case of `COCCNC(=O)CSc1nc2ccccc2c2nc(C)nn12`, the “hERG current change (%, negative = inhibition) at 10uM” value is recorded as -11.7%.

For the compound `NC(=O)C1CCN(CC(=O)NC2CCCc3ccccc32)CC1` (stereo not shown), the “hERG current change (%, negative = inhibition) at 10uM” value is reported as 12.5%.

For `NNC(=O)CCn1nnc2ccccc21`, the “hERG current change (%, negative = inhibition) at 10uM” value is given as 21.6%.

As for `CCOC(=O)c1c2c(c(=S)n(-c3ccccc3)c1N)CCC2`, the “hERG current change (%, negative = inhibition) at 10uM” value is given as 8.1%.

For `CCOc1ccc(C2C3=C(CCCC3=O)OC(N)=C2[N+](=O)[O-])cc1` (stereo not shown), the “hERG current change (%, negative = inhibition) at 10uM” value is listed as 10.9%.

For the compound `NS(=O)(=O)c1cccc(NC(=O)CCSc2ccc(Cl)cc2)c1`, the “hERG current change (%, negative = inhibition) at 10uM” value amounted to 9.47%.

With `CCc1n[nH]c(=S)n1/N=C/c1cc(Br)c(OC)cc1OC`, the “hERG current change (%, negative = inhibition) at 10uM” value is reported as 39.5%.

Turning to `O=C(Cn1cccc1C(=O)c1ccccc1)NCc1cccs1`, the “hERG current change (%, negative = inhibition) at 10uM” value was determined as 2.4%.

On to `O=C(O)Cc1ccc(NC(=O)Nc2cccc(Cl)c2)cc1`, for which the “hERG current change (%, negative = inhibition) at 10uM” value stood at 9.19%.

For `CCNCCNc1ccc([N+](=O)[O-])c2cccnc12`, the “hERG current change (%, negative = inhibition) at 10uM” value was -22.8%.

In the case of `Cc1cc(=O)oc2cc(O)ccc12`, the “hERG current change (%, negative = inhibition) at 10uM” value was found to be 20%.

In the case of `O=C(NCCN1C(=O)S/C(=C\c2ccc(Cl)c(Cl)c2)C1=O)c1ccc2c(c1)C(=O)N(Cc1ccncc1)C2=O`, the “hERG current change (%, negative = inhibition) at 10uM” value is recorded as -0.0661%.

For `O=C(Nc1cccc(Cl)c1)Nc1ccccc1NS(=O)(=O)c1cccs1`, the “hERG current change (%, negative = inhibition) at 10uM” value was 24%.

On to `Cc1ccc(N2CC(C(=O)NC3CCC(C)CC3)CC2=O)cc1` (stereo not shown), for which the “hERG current change (%, negative = inhibition) at 10uM” value is listed as 18.4%.

With `COc1ccc2[nH]cc(/C=C/C(=O)c3ccccc3)c2c1`, the “hERG current change (%, negative = inhibition) at 10uM” value is 17.6%.

Take `CC1(NC(=O)c2cc(S(=O)(=O)N3CCCCC3)ccc2Cl)CCS(=O)(=O)C1` (stereo not shown): the “hERG current change (%, negative = inhibition) at 10uM” value was -0.979%.

Regarding `O=C(CSc1cn(CCNC(=O)c2c(F)cccc2F)c2ccccc12)NCC1CCCO1` (stereo not shown), the “hERG current change (%, negative = inhibition) at 10uM” value is recorded as 5.3%.

With `C=CCNC(=S)Nc1ccc2nc(C)c(C)nc2c1`, the “hERG current change (%, negative = inhibition) at 10uM” value came to 0.403%.

As to `CC(=O)n1c(-c2ccccc2)c(-c2ccccc2)n(C)c1=O`, the “hERG current change (%, negative = inhibition) at 10uM” value is 4.06%.

Regarding `Cn1nc(CC(=O)NC2CCCCCC2)c2ccccc2c1=O`, the “hERG current change (%, negative = inhibition) at 10uM” value was -0.318%.

With `Cl.O=C(CN1CCCC1)Nc1ccc(Br)cc1`, the “hERG current change (%, negative = inhibition) at 10uM” value is on record as -1.25%.

For `CC1CN(O)C2CCc3nonc3C12O` (stereo not shown), the “hERG current change (%, negative = inhibition) at 10uM” value worked out at 2.52%.

Consider `CCOc1ccccc1N(CC(=O)N1CCC(C)CC1)S(=O)(=O)c1ccc(C)cc1`, for which the “hERG current change (%, negative = inhibition) at 10uM” value is recorded as -19.6%.

For the compound `Nc1nc(CN2CCN(c3cccc(Cl)c3)CC2)nc(N2CCCc3ccccc32)n1`, the “hERG current change (%, negative = inhibition) at 10uM” value is recorded as -6.96%.

As for `O=C(NC(=S)Nc1ccc2[nH]c(=O)[nH]c2c1)c1cccc(F)c1`, the “hERG current change (%, negative = inhibition) at 10uM” value turned out to be 19%.

As for `Cc1ccc(CNC(=O)CNC(=O)[C@@H]2Cc3ccccc3CN2)cc1`, the “hERG current change (%, negative = inhibition) at 10uM” value is reported as -4.45%.

`COC(=O)c1ccc(CNC(=O)CNc2cc(C(F)(F)F)ccc2N2CCOCC2)cc1`: the “hERG current change (%, negative = inhibition) at 10uM” value was 3.34%.

On to `CN(C)c1ccc(C(CNS(=O)(=O)c2ccc(F)cc2)c2c[nH]c3ccccc23)cc1` (stereo not shown), for which the “hERG current change (%, negative = inhibition) at 10uM” value came out at 17.3%.

For the compound `O=C(Cn1nc(-c2cccc(Cl)c2)ccc1=O)Nc1ccc(C(=O)NC2CC2)cc1`, the “hERG current change (%, negative = inhibition) at 10uM” value amounted to 2.44%.

For the compound `O=C(Nc1c(C(=O)Nc2ccc3c(c2)OCCO3)cnn1-c1ccccc1Cl)c1ccco1`, the “hERG current change (%, negative = inhibition) at 10uM” value is 11.1%.

Regarding `O=C(O)CCCC(=O)NCc1c(Cl)cccc1Sc1ccc(Cl)cc1`, the “hERG current change (%, negative = inhibition) at 10uM” value is given as 5.18%.
